Laboratory results published in PubChem BioAssay (Tox21).
Inconclusive means that the source gave no clear call. Such entries were picked first, then a sample of the others. For some assays here: No potency is given beside an inconclusive call; the fits are too rough. Active and inactive are the calls of the source. Unless noted, the call rests on the fitted dose curve; in most records, active means well fitted curve in the direction sought with a large enough effect in the repeat runs; inconclusive means weak or mixed curves; inactive means no such curve, though single readings can be large; an effect the other way counts as inactive or inconclusive.

Legend:
[1] = qHTS assay for small molecule agonists of the antioxidant response element (ARE) signaling pathway (AID 743202; active means well fitted activation curve with a large enough effect in the signal ratio in the repeat runs, not every such curve was filed as active; inconclusive means weak or mixed curves, or effect the other way; inactive means no such curve, though single readings can be large or run the other way; the % refers to the signal ratio; further: potency means the concentration at half of the fitted maximal effect; on activation: on the % scale 0 is the no-effect control and ±100 the full control effect); conditions: HepG2 ARE-bla reporter, beta-lactamase FRET, 16 h; activation: at 73.3 µM (top of the series) unless noted
Procedure, shortened: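 Agonist mode reporter screen: HepG2 cells with ARE-controlled beta-lactamase are incubated with test compounds for 16 h at 37 C, and beta-lactamase activity is measured as fluorescence of cleaved B/G FRET substrate.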

[2] = qHTS assay to identify small molecule antagonists of the peroxisome proliferator-activated receptor delta (PPARd) signaling pathway - cell viability counter screen (AID 743213); conditions: PPARd-bla HEK293H viability, CellTiter-Glo luminescence, 17 h; viability change, negative = cytotoxic: at 62 µM (top of the series) unless noted; further: on the % scale 0 is the no-effect control and ±100 the full control effect; nearly all actives have a fitted effect of over 50% in size
Procedure, shortened: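 HEK293H PPARd UAS-bla cells, 5 h pre-incubation, compound + L165041 300 nM final, 17 h 37 C; B/G FRET substrate 2 h RT; then CellTiter-Glo 30 min RT, luminescence.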

[3] = molecular target: Estrogen receptor beta (Homo sapiens) (UniProt Q92731); assay: qHTS assay to identify small molecule antagonists of the estrogen receptor beta (ER-beta) signaling pathway (AID 1259378; active means well fitted inhibition curve with a large enough effect in the signal ratio in the repeat runs, not every such curve was filed as active; inconclusive means weak or mixed curves, or effect the other way; inactive means no such curve, though single readings can be large or run the other way; the % refers to the signal ratio; further: on the % scale 0 is the no-effect control and ±100 the full control effect); conditions: ER-beta-UAS-bla HEK293T, beta-lactamase FRET ratio, 16 h; activity, negative = inhibition: at 92.4 µM (top of the series) unless noted
Procedure, shortened: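 ER-beta-UAS-bla HEK293T cells in 2% charcoal-stripped FBS medium treated with compound plus 1nM final 17-beta-estradiol for 16 hr at 37C. Beta-lactamase reporter read by FRET substrate fluorescence after 2 hours at room temperature.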

[4] = molecular target: Cytochrome P450 2D6 (Homo sapiens) (UniProt P10635); assay: Cytochrome P450 Family 2 Subfamily D Member 6 (CYP2D6) small molecule antagonists: luciferase reporter qHTS assay (AID 1671196); further: nearly all actives have a fitted effect of over 50% in size; further: potency means the concentration at half of the fitted maximal effect
Procedure, shortened: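 Luminescence (RLU), read 20 min after detection reagent, indicated CYP2D6 conversion of proluciferin to luciferin during a 1 h NADPH-dependent reaction at room temperature.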

[5] = molecular target: Cytochrome P450 2C19 (Homo sapiens) (UniProt P33261); assay: Cytochrome P450 Family 2 Subfamily C Member 19 (CYP2C19) small molecule antagonists: luciferase reporter qHTS assay (AID 1671197); further: nearly all actives have a fitted effect of over 65% in size; further: potency means the concentration at half of the fitted maximal effect
Procedure, shortened: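 CYP2C19 P450-Glo, 1536-well qHTS. Cpd + enzyme/proluciferin substrate 10 min RT; + NADPH regen, 37C 1 h; stop with luciferin detection reagent, 20 min RT, luminescence (RLU). Pos ctrl ketoconazole.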

[6] = molecular target: Cytochrome P450 2C9 (Homo sapiens) (UniProt P11712); assay: Cytochrome P450 Family 2 Subfamily C Member 9 (CYP2C9) small molecule antagonists: luciferase reporter qHTS assay (AID 1671198); further: potency means the concentration at half of the fitted maximal effect; nearly all actives have a fitted effect of over 50% in size
Procedure, shortened: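 P450-Glo proluciferin substrate with CYP2C9 enzyme; 10 min RT preincubation, then NADPH regeneration 1 h at 37C; luciferin detection reagent 20 min RT, luminescence in relative luminescence units.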

[7] = molecular target: Glucocorticoid receptor (Homo sapiens) (UniProt P04150); assay: qHTS assay to identify small molecule antagonists of the glucocorticoid receptor (GR) signaling pathway (AID 720692; active means well fitted inhibition curve with a large enough effect in the signal ratio in the repeat runs, not every such curve was filed as active; inconclusive means weak or mixed curves, or effect the other way; inactive means no such curve, though single readings can be large or run the other way; the % refers to the signal ratio; further: on the % scale 0 is the no-effect control and ±100 the full control effect); conditions: GR-bla HeLa, beta-lactamase FRET ratio, dexamethasone-stimulated, 18 h; activity change, negative = inhibition: at 58.5 µM (top of the series) unless noted
Procedure, shortened: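 Dexamethasone (5 nM final) stimulated a stably integrated GRE-beta-lactamase reporter in HeLa cells during 18 h co-incubation with compounds; signal was quantified as fluorescence intensity of B/G FRET substrate after 2 h.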

[8] = qHTS assay to identify small molecule agonists of the farnesoid-X-receptor (FXR) signaling pathway - cell viability counter screen (AID 743218); conditions: FXR-bla HEK293T viability, CellTiter-Glo luminescence, 16 h; viability change, negative = cytotoxic: at 62.6 µM (top of the series); further: potency means the concentration at half of the fitted maximal effect; nearly all actives have a fitted effect of over 45% in size
Procedure, shortened: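 After 16 h at 37 C with test compounds, FXR-bla HEK 293T cells were given LiveBLAzer B/G substrate for 2 h at RT and then CellTiter-Glo; luminescence was taken after 30 min.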

[9] = molecular target: Vitamin D3 receptor (Homo sapiens) (UniProt P11473); assay: qHTS assay to identify small molecule antagonists of the vitamin D receptor (VDR) signaling pathway (AID 743223; active means well fitted inhibition curve with a large enough effect in the signal ratio in the repeat runs, not every such curve was filed as active; inconclusive means weak or mixed curves, or effect the other way; inactive means no such curve, though single readings can be large or run the other way; the % refers to the signal ratio; further: potency means the concentration at half of the fitted maximal effect; on activity change, negative = inhibition: on the % scale 0 is the no-effect control and ±100 the full control effect); conditions: VDR-UAS-bla HEK293T, beta-lactamase FRET ratio, 16 h; activity change, negative = inhibition: at 61 µM (top of the series) unless noted
Procedure, shortened: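 Antagonist mode uses 1alpha,25-dihydroxyvitamin D3 at 3 nM final as stimulus. VDR-bla cells receive compounds in DMSO, incubate 16 h at 37C, then a beta-lactamase FRET substrate for 2 h at room temperature before fluorescence measurement.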

[10] = qHTS assay to identify small molecule agonists of the RXR signaling pathway - cell viability counter screen (AID 1159529); further: potency means the concentration at half of the fitted maximal effect; nearly all actives have a fitted effect of over 50% in size
Procedure, shortened: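 HEK 293T RXRa-bla cells, 2% CS-FBS; 5 h settle; cpd 16 h 37 C, 5% CO2; CellTiter-Glo 30 min RT, luminescence. Tetraoctyl ammonium bromide as positive control.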

[11] = qHTS assay to identify small molecule antagonists of the sonic hedgehog signaling (Shh) pathway (AID 1259369; calls by dose curve; further: potency means the concentration at half of the fitted maximal effect; nearly all actives have a fitted effect of over 45% in size)
Procedure, shortened: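 Conditioned medium drives Shh signalling in 3T3Gli1-Luc cells; compounds in DMSO co-applied, 24hr at 37 C, then luciferase luminescence.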

[12] = qHTS assay to identify small molecule agonists of the progesterone receptor (PR) signaling pathway - cell viability counter screen (AID 1346799; calls by dose curve; further: on the % scale 0 is the no-effect control and ±100 the full control effect; nearly all actives have a fitted effect of over 45% in size)
Procedure, shortened: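 Luminescence from CellTiter-Glo, added after the beta-lactamase FRET read in the same wells, gave cytotoxicity in PR-UAS-bla HEK293T cells treated with compounds for 16 hr at 37C.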

[13] = qHTS assay for small molecule disruptors of the mitochondrial membrane potential (AID 720635); conditions: HepG2 mitochondrial membrane potential, Mito-MPS dye ratio; ratio activity, negative = MMP loss: at 83.2 µM (top of the series) unless noted; further: potency means the concentration at half of the fitted maximal effect
Procedure, shortened: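 HepG2 cells exposed to compound 1 hr at 37C, then Mito-MPS dye 30 min. Ratio read of aggregate (540/590 nm) versus monomer (490/535 nm) fluorescence.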

[14] = qHTS assay to identify small molecule antagonists of the thyroid receptor (TR) signaling pathway - cell viability counter screen (AID 743064); conditions: GH3.TRE-Luc viability, CellTiter-Fluor, 24 h; activity change, negative = cytotoxic: at 70.3 µM (top of the series) unless noted
Procedure, shortened: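 Fluorescence from CellTiter-Fluor, added after 23.5 h exposure at 37 °C, reported viability of GH3.TRE-Luc cells co-treated with compound and 1 nM T3. Measured in the same wells as the luciferase TR readout.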
Tags describe the fitted curve by direction and shape or compound fluorescence and quenching.

UniProt P33261, sequence (P33261 whole entry, looked up): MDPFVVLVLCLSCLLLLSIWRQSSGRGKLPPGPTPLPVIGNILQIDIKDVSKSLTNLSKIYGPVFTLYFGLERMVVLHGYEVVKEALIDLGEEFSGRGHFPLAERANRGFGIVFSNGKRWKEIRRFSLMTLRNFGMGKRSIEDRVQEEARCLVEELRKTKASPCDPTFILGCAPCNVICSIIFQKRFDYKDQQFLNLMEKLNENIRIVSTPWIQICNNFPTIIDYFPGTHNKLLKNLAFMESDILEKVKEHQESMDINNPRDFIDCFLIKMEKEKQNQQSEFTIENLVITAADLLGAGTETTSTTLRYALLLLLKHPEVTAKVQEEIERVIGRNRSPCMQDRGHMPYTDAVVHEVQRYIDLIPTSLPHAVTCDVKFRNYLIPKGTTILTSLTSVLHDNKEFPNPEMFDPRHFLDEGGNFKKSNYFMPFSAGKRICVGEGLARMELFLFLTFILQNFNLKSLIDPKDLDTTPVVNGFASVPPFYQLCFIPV
UniProt P11473, sequence (P11473 whole entry, looked up): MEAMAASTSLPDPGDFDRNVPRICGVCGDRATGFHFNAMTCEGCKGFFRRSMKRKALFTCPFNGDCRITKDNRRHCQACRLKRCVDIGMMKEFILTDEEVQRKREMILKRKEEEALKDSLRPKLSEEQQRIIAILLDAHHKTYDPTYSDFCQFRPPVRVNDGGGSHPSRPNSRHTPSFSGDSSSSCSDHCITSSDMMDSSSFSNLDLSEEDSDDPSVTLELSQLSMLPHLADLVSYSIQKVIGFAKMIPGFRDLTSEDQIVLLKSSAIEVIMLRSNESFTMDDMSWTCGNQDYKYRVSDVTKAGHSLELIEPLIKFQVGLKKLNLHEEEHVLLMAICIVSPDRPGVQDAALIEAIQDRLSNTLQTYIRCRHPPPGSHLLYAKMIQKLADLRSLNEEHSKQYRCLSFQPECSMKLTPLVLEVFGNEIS
UniProt Q92731, sequence (Q92731 whole entry, looked up): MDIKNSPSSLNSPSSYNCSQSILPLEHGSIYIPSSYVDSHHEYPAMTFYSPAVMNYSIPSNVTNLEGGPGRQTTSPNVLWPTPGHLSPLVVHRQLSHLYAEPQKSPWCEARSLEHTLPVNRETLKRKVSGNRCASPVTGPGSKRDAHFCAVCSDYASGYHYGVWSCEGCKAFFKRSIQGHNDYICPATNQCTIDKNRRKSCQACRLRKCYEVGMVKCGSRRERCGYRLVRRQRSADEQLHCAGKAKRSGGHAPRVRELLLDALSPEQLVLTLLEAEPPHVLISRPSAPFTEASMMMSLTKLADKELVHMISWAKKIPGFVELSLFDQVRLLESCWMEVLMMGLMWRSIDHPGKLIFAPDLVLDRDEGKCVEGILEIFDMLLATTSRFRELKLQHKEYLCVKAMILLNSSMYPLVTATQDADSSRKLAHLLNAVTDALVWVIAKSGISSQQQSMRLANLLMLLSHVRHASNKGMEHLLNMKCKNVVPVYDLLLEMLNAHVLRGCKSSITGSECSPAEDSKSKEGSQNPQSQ
UniProt P10635, sequence (P10635 whole entry, looked up): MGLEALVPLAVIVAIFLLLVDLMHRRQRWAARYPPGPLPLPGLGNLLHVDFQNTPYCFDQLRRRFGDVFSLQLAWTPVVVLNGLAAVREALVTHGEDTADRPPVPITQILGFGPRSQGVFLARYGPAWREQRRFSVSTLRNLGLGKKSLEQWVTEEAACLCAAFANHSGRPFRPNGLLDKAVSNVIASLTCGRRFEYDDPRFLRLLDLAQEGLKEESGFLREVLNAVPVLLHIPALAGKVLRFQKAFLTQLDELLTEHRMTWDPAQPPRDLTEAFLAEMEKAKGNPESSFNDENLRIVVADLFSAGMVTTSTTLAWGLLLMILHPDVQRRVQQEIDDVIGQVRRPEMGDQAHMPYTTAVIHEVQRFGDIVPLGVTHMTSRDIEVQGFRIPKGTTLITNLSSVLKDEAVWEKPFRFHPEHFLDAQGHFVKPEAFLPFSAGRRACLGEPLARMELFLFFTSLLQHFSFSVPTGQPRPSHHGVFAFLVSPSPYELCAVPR
UniProt P11712, sequence (P11712 whole entry, looked up): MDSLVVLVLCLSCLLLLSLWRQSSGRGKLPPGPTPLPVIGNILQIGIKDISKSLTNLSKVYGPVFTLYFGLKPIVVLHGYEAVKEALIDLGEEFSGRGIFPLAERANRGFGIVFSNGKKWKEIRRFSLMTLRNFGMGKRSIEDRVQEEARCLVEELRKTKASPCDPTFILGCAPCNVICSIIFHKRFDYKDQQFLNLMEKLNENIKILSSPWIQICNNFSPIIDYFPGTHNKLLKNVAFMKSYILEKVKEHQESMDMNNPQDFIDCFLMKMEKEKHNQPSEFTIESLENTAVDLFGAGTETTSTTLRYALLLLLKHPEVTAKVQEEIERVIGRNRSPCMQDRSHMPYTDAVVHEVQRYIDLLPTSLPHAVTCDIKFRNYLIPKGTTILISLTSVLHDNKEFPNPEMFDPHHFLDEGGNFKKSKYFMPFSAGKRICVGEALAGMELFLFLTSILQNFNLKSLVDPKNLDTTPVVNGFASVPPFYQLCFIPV
UniProt P04150, sequence (P04150 whole entry, looked up): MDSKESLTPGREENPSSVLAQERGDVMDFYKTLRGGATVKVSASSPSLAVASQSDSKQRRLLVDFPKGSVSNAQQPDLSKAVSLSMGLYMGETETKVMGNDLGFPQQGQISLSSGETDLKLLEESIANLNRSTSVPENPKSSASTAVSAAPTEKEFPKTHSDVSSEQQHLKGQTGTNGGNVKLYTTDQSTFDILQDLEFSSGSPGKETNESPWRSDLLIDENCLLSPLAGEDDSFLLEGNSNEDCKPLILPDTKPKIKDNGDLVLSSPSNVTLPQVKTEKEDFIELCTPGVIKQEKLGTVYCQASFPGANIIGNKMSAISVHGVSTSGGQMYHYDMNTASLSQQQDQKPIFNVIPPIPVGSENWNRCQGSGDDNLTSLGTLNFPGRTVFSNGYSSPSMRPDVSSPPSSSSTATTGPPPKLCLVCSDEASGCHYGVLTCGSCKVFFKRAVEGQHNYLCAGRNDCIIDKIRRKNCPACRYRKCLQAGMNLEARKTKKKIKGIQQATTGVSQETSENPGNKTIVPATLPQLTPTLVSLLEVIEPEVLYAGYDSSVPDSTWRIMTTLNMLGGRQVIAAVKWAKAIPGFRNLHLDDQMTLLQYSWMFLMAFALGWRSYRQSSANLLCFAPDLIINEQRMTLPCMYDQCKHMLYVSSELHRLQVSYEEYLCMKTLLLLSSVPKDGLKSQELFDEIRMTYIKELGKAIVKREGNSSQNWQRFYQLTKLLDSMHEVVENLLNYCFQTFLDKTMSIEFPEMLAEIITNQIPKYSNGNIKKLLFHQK

CCC(CC)(CNC(=O)CCCO)c1cccc(OC)c1
Potency [1]: inactive
Potency [2]: inactive
Potency [3]: inactive
Potency [4]: inconclusive [inhibitor, partial curve]
Potency [5]: active: 7.76 µM
Potency [6]: inconclusive [inhibitor, partial curve, poor fit]

C(CCOCC1CO1)COCC1CO1 (stereo not given)
Potency [7]: inactive
Potency [1]: inconclusive [rising, single point]
Potency [8]: inconclusive [rising, full curve, poor fit]
Potency [9]: inconclusive [activator, full curve, poor fit]
Potency [10]: inconclusive [rising, full curve, poor fit]
Potency [11]: inconclusive [inhibitor, partial curve, poor fit]
Potency [12]: inactive
Potency [5]: inconclusive [inhibitor, single point]

Cc1ccc2cc(C)ccc2c1
Potency [13]: inconclusive [activator, single point]
Potency [14]: inconclusive [rising, full curve]
activity change, negative = inhibition [9]: inconclusive: 16.8%
Potency [3]: inactive
Potency [4]: inactive
Potency [5]: inactive
